Earlier results on 14 sequences are cited in article PMC11006913.

What all share (settings): PBM; conditions not shown; double strand, one strand shown; scale: upbm affinity estimate (log intensity, higher = more binding, comparable within an allelic series)
Data set [1] has as its target ARX (Homo sapiens) (UniProt Q96QS3).
In data set [2] the target is ARX L343Q (Homo sapiens) (UniProt Q96QS3).
For data set [3], the target named is ARX P353L (Homo sapiens) (UniProt Q96QS3).
In data set [4] the target is ARX P353R (Homo sapiens) (UniProt Q96QS3).
Data set [5] deals with ARX R332H (Homo sapiens) (UniProt Q96QS3).
For data set [6], the target named is ARX T333N (Homo sapiens) (UniProt Q96QS3).
The target in data set [7] is T1, HESX1 E149K (Homo sapiens) (UniProt Q9UBX0).
T1 sequence: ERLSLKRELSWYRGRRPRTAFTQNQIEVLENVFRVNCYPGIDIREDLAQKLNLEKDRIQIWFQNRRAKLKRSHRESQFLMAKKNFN

Data set [8] concerns the target T2, HESX1 N125S (Homo sapiens) (UniProt Q9UBX0).
T2 sequence: T1 sequence with N31S, K55E

For data set [9], the target named is T3, HESX1 R160C (Homo sapiens) (UniProt Q9UBX0).
T3 sequence: T1 sequence with K55E, R66C

In data set [10] the target is ISX (Homo sapiens) (UniProt Q2M1V0).
Data set [11] deals with ISX R83Q (Homo sapiens) (UniProt Q2M1V0).
In data set [12] the target is PROP1 R112Q (Homo sapiens) (UniProt O75360).
Data set [13] addresses PROP1 R99Q (Homo sapiens) (UniProt O75360).
Data set [14] addresses HOXD13 I297V (Homo sapiens) (UniProt P35453).
The target in data set [15] is HOXD13 I322L (Homo sapiens) (UniProt P35453).
In data set [16] the target is HOXD13 N298S (Homo sapiens) (UniProt P35453).
For data set [17], the target named is HOXD13 Q325K (Homo sapiens) (UniProt P35453).
Data set [18] has as its target HOXD13 Q325R (Homo sapiens) (UniProt P35453).
In data set [19] the target is HOXD13 R306W (Homo sapiens) (UniProt P35453).
Data set [20] addresses HOXD13 S316C (Homo sapiens) (UniProt P35453).

Substitutions are numbered along the chain they refer to. Some of the results follow.

For GATAATTA [8-mer GATAATTA], the binding signal in data set [1] is 13.2; in data set [2] it was 11; in data set [3], 12.7; in [4], 10.9; in [5] it was 11.2; in [6] it was 12.3. In addition, the binding signal in data set [7] was 12; in data set [8] it was 13.2; in data set [9], 10.4; in data set [10], 15.5; in data set [11], 14.5; in data set [12], 12.9. Besides, in data set [13], the binding signal is 12.5.

As to AATTATCA [8-mer AATTATCA], the binding signal in data set [1] is 12.7; in [2], 10.9; in data set [3], 12.1; in data set [4], 10.9; in data set [5], 11.1; in [6], 11.8. The binding signal was 11.4 in [7]; 11.3 in [8]; 10.4 in data set [9]; 12.6 in data set [12]; 12.1 in data set [13].

In the case of TAATTGGA [8-mer TAATTGGA], the binding signal was 13 in [1]; 11 in data set [2]; 12.7 in data set [3]; 10.8 in [4]; 11.1 in data set [5]; 12.2 in data set [6]. The binding signal was 11.9 in data set [7]; 12.9 in data set [8]; 10.3 in [9]; 15.5 in data set [10]; 14.9 in [11]; 12.9 in data set [12]. In addition, in data set [13], the binding signal was 12.5.

In the case of AATTAACT [8-mer AATTAACT], the binding signal in data set [1] is 12.9; in [2], 10.9; in [3] it was 12.4; in data set [4], 10.8; in data set [5] it was 11.1; in data set [6], 12. Further, the binding signal was 11.6 in data set [7]; 11.8 in data set [8]; 10.4 in data set [9]; 15 in [10]; 13.9 in data set [11]; 12.8 in data set [12]. Further, in [13], the binding signal was 12.3.

On to ACTAATTG [8-mer ACTAATTG], for which the binding signal in [1] is 13.1; in data set [2], 11; in data set [3], 12.7; in [4], 10.8; in [5], 11; in data set [6] it was 12.2. Further, the binding signal in data set [7] is 11.8; in [8], 12.6; in data set [9], 10.4; in data set [10], 15.3; in data set [11], 14.5; in data set [12], 12.8. In data set [13], the binding signal was 12.5.

Regarding ACAATTAA [8-mer ACAATTAA], the binding signal in data set [1] is 12.7; in [2], 10.9; in [3], 12.1; in data set [4] it was 10.7; in data set [5], 11; in [6] it was 11.9. Further, the binding signal in data set [7] was 11.5; in data set [8] it was 11.9; in [9], 10.4; in data set [10] it was 15; in [11], 14; in [12] it was 12.7. Moreover, the binding signal in data set [13] was 12.

Turning to AATTAACC [8-mer AATTAACC], the binding signal was 12.7 in data set [1]; 10.8 in data set [2]; 12.1 in data set [3]; 10.7 in data set [4]; 10.9 in [5]; 11.9 in data set [6]. Further, the binding signal in [7] is 11.3; in data set [11] it was 13.3; in data set [12], 12.6; in [13], 12.1.

In the case of CGGGCCCG [8-mer CGGGCCCG], the binding signal in [1] is 10.2; in [2] it was 9.95; in [3] it was 10.1; in data set [4] it was 9.96; in data set [5] it was 10; in [6], 10.3. For the same sequence, the binding signal in data set [14] is 9.96; in [15], 9.91; in [16], 9.93; in [17], 9.41; in [18], 9.6; in data set [19], 9.41. Moreover, the binding signal in [20] was 9.77.

For the sequence AATTATGT [8-mer AATTATGT], the binding signal is 12.7 in [1]; 10.9 in data set [2]; 12.1 in data set [3]; 10.8 in [4]; 11.1 in [5]; 11.8 in data set [6]. Also, the binding signal in data set [7] was 11.4; in data set [12], 12.6; in data set [13], 12.2.

Turning to CGCCCAAG [8-mer CGCCCAAG], the binding signal in [1] was 10.1; in data set [2], 10.1; in [3], 10.2; in data set [4], 10.1; in data set [5] it was 10.1; in [6] it was 10.3. Also, the figures for the binding signal in data set [10] and in data set [11] were 9.62 and 9.67, respectively.

With CGAGGCCC [8-mer CGAGGCCC], the binding signal is 10.2 in [1]; 10.1 in data set [2]; 10.3 in data set [3]; 10.1 in data set [4]; 10.2 in data set [5]; 10.2 in data set [6]. The binding signal was 9.75 in data set [10] and 9.8 in data set [11].

As for CTTGGGCC [8-mer CTTGGGCC], the binding signal is 10.1 in [1]; 10.1 in data set [2]; 10.1 in data set [3]; 10 in [4]; 10 in data set [5]; 10.1 in data set [6].

With CCCGTCCC [8-mer CCCGTCCC], the binding signal in data set [1] was 10.2; in data set [2] it was 10.1; in data set [3], 10.1; in data set [4], 10; in data set [5] it was 10.1; in [6], 10.2. Further, the binding signal in [12] was 10.9; in data set [13], 11.

In the case of ATTAACGG [8-mer ATTAACGG], the binding signal in [1] is 12.1; in data set [2], 10.7; in [3], 11.7; in data set [4] it was 10.6; in data set [5], 10.8; in [6], 11.4.
